In all, about 340,000 compounds went through this assay and about 12,000 (3.5%) were called active. This list was built around the results that the source calls inconclusive (neither active nor inactive); the mix of calls is not that of the screen. The call rests on the fitted dose curve; in most records, active means well fitted inhibition curve with a large enough effect; inconclusive means small, poorly fitted or top-dose-only effect, or another doubt; inactive means no such curve, though single readings can be large or run the other way. No potency is given beside an inconclusive call; the fits are too rough. A structure can be active in one record and inactive in another.
Experiment: qHTS Assay for Inhibitors of Hepatitis C Virus (HCV)
Details: Huh7.5.1 HCVcc-Cre (HCVcc is cell-culture hepatitis C virus) infection, luciferase reporter, 44 h; series mostly up to 41.8 µM
How it was run: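 A cell-based infection assay in which seeded cells (1,000 per well) receive test compound after 4 h, are inoculated with HCVcc-Cre at approximately 0.5 moi, and are incubated 44 h before luminescence detection.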
In the case of `O=C(COC(=O)c1ccccc1Br)NC(=O)NCc1ccccc1`, the Potency is reported as “inactive”. In the case of `COC(=O)C1OCOC2C(C(=O)OC)OCOC12` (configuration not stated), the Potency is reported as “inactive”. In the case of `CCOC(=O)C1CCN(c2cc3c(cc2NC(=O)c2ccc(F)cc2)n(C)c(=O)n3C)CC1`, the Potency is reported as inconclusive [inhibitor, single point]. In the case of `CO/N=C/c1ccc(N2CCN(C(=O)c3ccc(C)cc3)CC2)c([N+](=O)[O-])c1`, the Potency is reported as inconclusive [inhibitor, single point]. In the case of `NC(=O)c1nsc(C(=O)N(Cc2ccco2)C(C(=O)NC2CCCC2)c2ccc(O)cc2)c1N` (configuration not stated), the Potency is reported as inconclusive [inhibitor, partial curve]. In the case of `O=C(NCCC1=CCCCC1)c1ccc(Cl)c(S(=O)(=O)N2CCCCC2)c1`, the Potency is reported as inconclusive [inhibitor, single point]. In the case of `Cc1ccc(-c2nnc(N3CCN(C(=O)CN4CCOCC4)CC3)c3ccccc23)cc1`, the Potency is reported as active: 10 µM. In the case of `C/C(=N\N1C(=O)c2ccccc2NC1c1ccccc1)c1ccccc1O` (configuration not stated), the Potency is reported as inconclusive [inhibitor, single point]. In the case of `COc1ccc(C2=NN(C(=O)CSc3nc4ccccc4s3)C(c3ccc(F)cc3)C2)cc1` (configuration not stated), the Potency is reported as inconclusive [inhibitor, single point]. For `Cc1ccc(/C=N/n2c(-c3cccc(Cl)c3)n[nH]c2=S)o1`, the Potency was “inactive”. For `Cc1cccc(NC(=S)N2CCN(S(=O)(=O)c3cccc(F)c3)CC2)c1`, the Potency was active: 6.31 µM. With `O=C(Nc1ccn(Cc2c(F)c(F)cc(F)c2F)n1)c1ccc(COc2cc(Cl)ccc2Cl)o1` the Potency was inconclusive [inhibitor, full curve]. For `CC(C)(C)NC(=O)COC(=O)/C=C/c1ccc(F)cc1`, the Potency was “inactive”. In the case of `Cc1cc(-c2nn(-c3ccccc3F)cc2CN2CCN(c3ccncc3)CC2)c(C)s1`, the Potency is reported as inconclusive [inhibitor, partial curve, poor fit]. With `COCCC1CCCCN1C(=O)c1cc(COc2ccc(-n3cncn3)cc2)on1` (configuration not stated) the Potency was active: 10 µM. For `COC(=O)CN(C#N)c1nc(N(C)C)nc(N(C)C)n1`, the Potency was “inactive”. For `Cc1c(C(C)C)c(=O)n(-c2ccc(S(=O)(=O)NCc3ccccc3)cc2)n1C`, the Potency was active: 0.891 µM. For `Cc1ccccc1C(=O)N1CCC(C(=O)Nc2ccc(S(=O)(=O)N3C(C)CCCC3C)cc2)CC1` (configuration not stated), the Potency was inconclusive [inhibitor, single point]. With `O=C(NC(=S)Nc1cccc(NC(=S)NC(=O)c2ccccc2)c1)c1ccccc1` the Potency was inconclusive [inhibitor, partial curve]. In the case of `CSc1ccccc1OCc1cc(C(=O)N2CCN(C)C(c3ccccc3)C2)no1` (configuration not stated), the Potency is reported as inconclusive [inhibitor, single point]. For `Cc1cc(C)cc(OCC(=O)Nc2ccc(N3CCN(S(C)(=O)=O)CC3)cc2)c1`, the Potency was inconclusive [inhibitor, single point]. For `Cc1ccc(C=C2C(=O)c3ccccc3C2=O)o1`, the Potency was “inactive”. With `O=S(=O)(c1ccc(F)cc1)c1nc(-c2ccco2)oc1Nc1ccc(F)cc1` the Potency was inconclusive [inhibitor, single point]. For `CC1=CC2C(C(O)CC3(C)C2CC(C)C32OCOC23COCO3)C2(C)C/C(=C\O)C(=O)C=C12` (configuration not stated), the Potency was inconclusive [inhibitor, single point]. For `Cc1csc(NC(=O)c2cccn2C)n1`, the Potency was “inactive”. In the case of `Cc1nc(NC(=O)C2CC2)sc1C(=O)Nc1ccc(Br)cc1`, the Potency is reported as inconclusive [inhibitor, partial curve]. With `CCc1ccccc1NC(=S)N(CCCN1CCN(C)CC1)Cc1cccs1` the Potency was “inactive”. In the case of `COC(=O)CN1C(=O)[C@H]2[C@@H](c3ccc(C)o3)N3C(=O)CN(Cc4ccc(-c5ccccc5)cc4)C(=O)[C@@]3(C)[C@H]2C1=O`, the Potency is reported as “inactive”. For `CCCCCC(=O)Nc1cccc(C2=NOC3(C2)C[C@H](C(N)=O)N(C(=O)CCCCC)C3)c1` (some centres not stated), the Potency was inconclusive [inhibitor, single point]. For `CC(C)(C)c1ccc(C2CC2C(=O)N/N=C\c2ccc[nH]2)cc1` (configuration not stated), the Potency was active: 0.562 µM. In the case of `COc1ccc(S(=O)(=O)Nc2ccc(S(=O)(=O)N3CCCC3)cc2)cc1`, the Potency is reported as inconclusive [inhibitor, single point]. With `C/C=C/c1ccc(OCCCCOc2ccccc2F)c(OC)c1` the Potency was inconclusive [inhibitor, single point]. For `O=C(N/N=C/c1ccc(O)cc1)c1ccncc1`, the Potency was “inactive”. For `O=C(c1cc2cc(Br)ccc2[nH]1)N1CCc2ccccc21`, the Potency was “inactive”. For `C=C(C)COc1ccc(-c2[nH]ncc2Oc2cccc(OC)c2)c(O)c1`, the Potency was inconclusive [inhibitor, single point]. In the case of `COc1ccc(/C=C/C(=O)Nc2ccc(-n3nncc3-c3ccc(OC)c(OC)c3)cc2)cc1OC`, the Potency is reported as inconclusive [inhibitor, partial curve]. In the case of `O=Cc1cn(-c2ccccc2)nc1-c1ccc2c(c1)OCCO2`, the Potency is reported as inconclusive [inhibitor, single point]. In the case of `N#Cc1c(NC(=O)c2cc(-n3cnnc3)ccc2Cl)sc2c1CCCC2`, the Potency is reported as inconclusive [inhibitor, partial curve, poor fit]. For `Cc1cccc(C)c1OCC(=O)Nc1ccccc1N1CCCCC1`, the Potency was inconclusive [inhibitor, single point]. For `Cc1cc(C)cc(NS(=O)(=O)c2ccc3[nH]c(=O)[nH]c3c2)c1`, the Potency was inconclusive [inhibitor, single point]. With `O=C(Cc1csc(Nc2nc(=S)[nH]c3ccccc23)n1)NCCCN1CCN(c2cccc(Cl)c2)CC1` the Potency was inconclusive [inhibitor, partial curve]. With `O=C(CC1C(=O)NCCN1Cc1c(F)cccc1Cl)NCCCN1CCCC1=O` (configuration not stated) the Potency was “inactive”. In the case of `COc1cc(CNc2ccc3[nH]c(=O)[nH]c3c2)ccc1OCc1ccc(F)cc1Cl`, the Potency is reported as inconclusive [inhibitor, single point]. With `COc1cc(CNc2ncc(-c3ccc(Cl)cc3)n2C)cc(OC)c1OC` the Potency was inconclusive [inhibitor, single point]. In the case of `Cc1ccc(NC(=O)CN(C)C(=O)Cn2ccsc2=N)cc1`, the Potency is reported as “inactive”. For `CSc1nsc(N/N=C/c2ccc3c(c2)OCO3)c1C#N`, the Potency was “inactive”. In the case of `O=C(C(=O)N1CCOCC1)c1cn(CCCOc2ccccc2)c2ccccc12`, the Potency is reported as “inactive”. For `O=C(Nc1nc2n(n1)C(c1ccccc1)C=C(c1ccccc1)N2)c1ccco1` (configuration not stated), the Potency was “inactive”. In the case of `Cc1cccc(N2CCN(C(=O)c3nn(C)c4c3CS(=O)(=O)c3ccccc3-4)CC2)c1C`, the Potency is reported as inconclusive [inhibitor, single point]. For `COc1ccc(OC2CCN(S(=O)(=O)c3ccc(C(C)=O)cc3)CC2)cc1`, the Potency was active: 12.6 µM. For `COc1ccccc1N1CCN(CCCCOc2ccc(C)cc2C)CC1`, the Potency was inconclusive [inhibitor, single point]. With `Cc1ccc(CN2CCSc3ccc(C(=O)NC4CCN(Cc5ccccc5)CC4)cc32)cc1` the Potency was active: 8.91 µM. With `CN1CCN(c2nc(C#N)cc(-c3ccccc3)n2)CC1` the Potency was active: 10 µM. In the case of `O=C(O)COc1ccc(/C=N/Nc2nc(Nc3ccccc3)nc(N3CCCCC3)n2)cc1`, the Potency is reported as “inactive”. In the case of `Fc1ccc(Cn2nnc(-c3ccc(CN4CCOCC4)cc3)n2)cc1`, the Potency is reported as inconclusive [inhibitor, single point]. In the case of `c1coc(-c2nc(-c3ccco3)c(-c3ccco3)nc2-c2ccco2)c1`, the Potency is reported as “inactive”. For `COc1ccc2c(c1)Cc1sc(NC(=O)c3cccnc3)nc1-2`, the Potency was inconclusive [inhibitor, single point]. In the case of `O=C1CC(c2ccccc2)Oc2cc(O)cc(O)c21` (configuration not stated), the Potency is reported as “inactive”. For `N=c1c(C(=O)NC2CCCCC2)cc2c(=O)n3ccccc3nc2n1Cc1ccco1`, the Potency was inconclusive [inhibitor, partial curve]. For `O=C(Nc1ccccc1Cl)ON=C1c2ccccc2-c2ccccc21`, the Potency was inconclusive [inhibitor, single point]. In the case of `Nc1nc(SCC(=O)Nc2cccc(S(=O)(=O)N3CCCCCC3)c2)n[nH]1`, the Potency is reported as inconclusive [inhibitor, single point]. With `Cc1cc(OCC(=O)N2CCN(CC(=O)N3CCOCC3)CC2)c(C(C)C)cc1Cl` the Potency was inconclusive [inhibitor, single point]. In the case of `CCNC(=S)NNC(=O)c1csc(C(C)C)c1`, the Potency is reported as “inactive”. In the case of `NC(=O)c1nsc(C(=O)N(c2ccccc2F)C(C(=O)NCc2ccc(F)cc2)c2ccc(O)cc2)c1N` (configuration not stated), the Potency is reported as active: 3.55 µM. For `Cc1cc(C)n2c(SCC(=O)N3CCN(S(=O)(=O)c4ccc(Cl)cc4)CC3)nnc2n1`, the Potency was “inactive”. With `COc1ccc(NC(=O)C2=CCN(S(=O)(=O)c3ccccc3)CC2)cc1OC` the Potency was “inactive”. For `CCC(=O)N(CCCN(C)C)c1nc(-c2cc(OC)ccc2OC)cs1`, the Potency was active: 5.62 µM. With `CCN(CC(=O)Nc1c(F)cccc1F)C(=O)c1cccnc1Sc1ccccc1` the Potency was inconclusive [inhibitor, single point]. With `O=[N+]([O-])c1ccc2nc(N3CCNCC3)ccc2c1` the Potency was inconclusive [inhibitor, single point]. With `CCOC(=O)C(Cc1ccc(O)c([N+](=O)[O-])c1)N1C(=O)c2ccccc2C1=O` (configuration not stated) the Potency was “inactive”. In the case of `COc1cc2c(c(OC)c1OC)-c1c(cc3c(c1OC)OCO3)[C@@H](OC(C)=O)[C@H](C)[C@H](C)C2`, the Potency is reported as “inactive”. In the case of `Nc1ccc(-c2nc(-c3ccccc3)nc3ccccc23)cc1`, the Potency is reported as inconclusive [inhibitor, single point].
Potency means the concentration at half of the fitted maximal effect; tags describe the fitted curve by direction and shape.
